# The supplement of paper PMC8728848
# The list shows a part of the results.
# Legend:
# Assay in all cases: glycan array binding signal (z-score within array); higher = stronger binding
# Settings in all cases: glycan notation: IUPAC condensed, linker removed
# Glc(b1-4)Glc = target: Glc(b1-4)Glc
# Outline: (§1)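 Arrays were curated from the Consortium for Functional Glycomics database, 3228 in total, and kept only where the protein sequence was available. Binding is expressed as a within-array Z-score. This score was averaged across arrays of the same protein sequence at different concentrations or buffers and across linkers, and negative values can be read as non-binding.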
# Glc(b1-6)Glc = target: Glc(b1-6)Glc
# Outline: as §1
# GlcA(b1-3)Gal = target: GlcA(b1-3)Gal
# Outline: as §1
# GlcA(b1-3)GlcNAc = target: GlcA(b1-3)GlcNAc
# Outline: as §1
# GlcA(b1-6)Gal = target: GlcA(b1-6)Gal
# Outline: as §1
# [1] = target: GlcA3S(b1-3)Gal(b1-4)GlcNAc(b1-2)Man
# Outline: as §1
# [2] = target: GlcA3S(b1-3)Gal(b1-4)GlcNAc(b1-3)Gal(b1-4)Glc
# Outline: as §1
# [3] = target: GlcNAc(a1-3)Gal(b1-4)GlcNAc
# Outline: as §1
# [4] = target: GlcNAc(a1-4)Gal(b1-3)GlcNAc
# Outline: as §1
# [5] = target: GlcNAc(a1-4)Gal(b1-4)GalNAc
# Outline: as §1
# [6] = target: GlcNAc(a1-4)Gal(b1-4)GlcNAc
# Outline: as §1
# [7] = target: GlcNAc(a1-4)Gal(b1-4)GlcNAc(b1-3)Gal(b1-4)Glc
# Outline: as §1
# [8] = target: GlcNAc(a1-4)Gal(b1-4)GlcNAc(b1-3)Gal(b1-4)GlcNAc
# Outline: as §1
# [9] = target: GlcNAc(a1-4)Gal(b1-4)GlcNAc(b1-3)Gal(b1-4)GlcNAc(b1-3)Gal(b1-4)GlcNAc
# Outline: as §1
# [10] = target: GlcNAc(a1-4)Gal(b1-4)GlcNAc(b1-3)Gal(b1-4)[Fuc(a1-3)]GlcNAc(b1-3)Gal(b1-4)[Fuc(a1-3)]GlcNAc
# Outline: as §1
# [11] = target: GlcNAc(a1-6)Gal(b1-4)GlcNAc
# Outline: as §1
# [12] = target: GlcNAc(b1-2)Gal(b1-3)GalNAc
# Outline: as §1
# [13] = target: GlcNAc(b1-2)Man(a1-3)[GlcNAc(b1-2)Man(a1-6)]Man(b1-4)GlcNAc(b1-4)GlcNAc
# Outline: as §1
# [14] = target: GlcNAc(b1-2)Man(a1-3)[GlcNAc(b1-2)Man(a1-6)]Man(b1-4)GlcNAc(b1-4)[Fuc(a1-6)]GlcNAc
# Outline: as §1
# [15] = target: GlcNAc(b1-2)Man(a1-3)[GlcNAc(b1-4)][GlcNAc(b1-2)Man(a1-6)]Man(b1-4)GlcNAc(b1-4)GlcNAc
# Outline: as §1
# [16] = target: GlcNAc(b1-2)Man(a1-3)[GlcNAc(b1-4)][GlcNAc(b1-2)Man(a1-6)]Man(b1-4)GlcNAc(b1-4)[Fuc(a1-6)]GlcNAc
# Outline: as §1
# [17] = target: GlcNAc(b1-2)[GlcNAc(b1-4)]Man(a1-3)[GlcNAc(b1-2)Man(a1-6)]Man(b1-4)GlcNAc(b1-4)GlcNAc
# Outline: as §1
# [18] = target: GlcNAc(b1-2)[GlcNAc(b1-4)]Man(a1-3)[GlcNAc(b1-4)][GlcNAc(b1-2)Man(a1-6)]Man(b1-4)GlcNAc(b1-4)GlcNAc
# Outline: as §1
# [19] = target: GlcNAc(b1-2)[GlcNAc(b1-4)]Man(a1-3)[GlcNAc(b1-4)][GlcNAc(b1-2)[GlcNAc(b1-6)]Man(a1-6)]Man(b1-4)GlcNAc(b1-4)GlcNAc
# Outline: as §1
# [20] = target: GlcNAc(b1-2)[GlcNAc(b1-4)]Man(a1-3)[GlcNAc(b1-4)][GlcNAc(b1-2)[GlcNAc(b1-6)]Man(a1-6)]Man(b1-4)GlcNAc(b1-4)[Fuc(a1-6)]GlcNAc
# Outline: as §1
# [21] = target: GlcNAc(b1-2)[GlcNAc(b1-6)]Man(a1-6)[GlcNAc(b1-2)Man(a1-3)]Man(b1-4)GlcNAc(b1-4)GlcNAc
# Outline: as §1
# [22] = target: GlcNAc(b1-2)[GlcNAc(b1-6)]Man(a1-6)[GlcNAc(b1-2)Man(a1-3)]Man(b1-4)GlcNAc(b1-4)[Fuc(a1-6)]GlcNAc
# Outline: as §1
# [23] = target: GlcNAc(b1-2)[GlcNAc(b1-6)]Man(a1-6)[GlcNAc(b1-4)][GlcNAc(b1-2)Man(a1-3)]Man(b1-4)GlcNAc(b1-4)GlcNAc
# Outline: as §1
# GlcNAc(b1-3)Fuc = target: GlcNAc(b1-3)Fuc
# Outline: as §1
# GlcNAc(b1-3)Gal = target: GlcNAc(b1-3)Gal
# Outline: as §1
# [24] = target: GlcNAc(b1-3)Gal(b1-3)GalNAc
# Outline: as §1
# GlcNAc(b1-3)Gal(b1-4)Glc = target: GlcNAc(b1-3)Gal(b1-4)Glc
# Outline: as §1
# [25] = target: GlcNAc(b1-3)Gal(b1-4)GlcNAc
# Outline: as §1
# [26] = target: GlcNAc(b1-3)Gal(b1-4)GlcNAc(b1-2)Man(a1-3)[GlcNAc(b1-3)Gal(b1-4)GlcNAc(b1-2)Man(a1-6)]Man(b1-4)GlcNAc(b1-4)GlcNAc
# Outline: as §1
# [27] = target: GlcNAc(b1-3)Gal(b1-4)GlcNAc(b1-2)Man(a1-3)[GlcNAc(b1-3)Gal(b1-4)GlcNAc(b1-2)Man(a1-6)]Man(b1-4)GlcNAc(b1-4)[Fuc(a1-6)]GlcNAc
# Outline: as §1
# [28] = target: GlcNAc(b1-3)Gal(b1-4)GlcNAc(b1-2)[GlcNAc(b1-3)Gal(b1-4)GlcNAc(b1-6)]Man(a1-6)[GlcNAc(b1-3)Gal(b1-4)GlcNAc(b1-2)Man(a1-3)]Man(b1-4)GlcNAc(b1-4)GlcNAc
# Outline: as §1
# [29] = target: GlcNAc(b1-3)Gal(b1-4)GlcNAc(b1-3)Gal(b1-4)GlcNAc
# Outline: as §1
# [30] = target: GlcNAc(b1-3)Gal(b1-4)GlcNAc(b1-3)Gal(b1-4)GlcNAc(b1-2)Man(a1-3)[GlcNAc(b1-3)Gal(b1-4)GlcNAc(b1-3)Gal(b1-4)GlcNAc(b1-2)Man(a1-6)]Man(b1-4)GlcNAc(b1-4)GlcNAc
# Outline: as §1
# [31] = target: GlcNAc(b1-3)Gal(b1-4)GlcNAc(b1-3)Gal(b1-4)GlcNAc(b1-2)Man(a1-3)[GlcNAc(b1-3)Gal(b1-4)GlcNAc(b1-3)Gal(b1-4)GlcNAc(b1-2)Man(a1-6)]Man(b1-4)GlcNAc(b1-4)[Fuc(a1-6)]GlcNAc
# Outline: as §1
# [32] = target: GlcNAc(b1-3)Gal(b1-4)GlcNAc(b1-3)Gal(b1-4)GlcNAc(b1-2)[GlcNAc(b1-3)Gal(b1-4)GlcNAc(b1-3)Gal(b1-4)GlcNAc(b1-6)]Man(a1-6)[GlcNAc(b1-3)Gal(b1-4)GlcNAc(b1-3)Gal(b1-4)GlcNAc(b1-2)Man(a1-3)]Man(b1-4)GlcNAc(b1-4)[Fuc(a1-6)]GlcNAc
# Outline: as §1
# [33] = target: GlcNAc(b1-3)Gal(b1-4)GlcNAc(b1-3)Gal(b1-4)GlcNAc(b1-3)Gal(b1-4)GlcNAc(b1-2)Man(a1-3)[GlcNAc(b1-3)Gal(b1-4)GlcNAc(b1-3)Gal(b1-4)GlcNAc(b1-3)Gal(b1-4)GlcNAc(b1-2)Man(a1-6)]Man(b1-4)GlcNAc(b1-4)GlcNAc
# Outline: as §1
# [34] = target: GlcNAc(b1-3)Gal(b1-4)GlcNAc(b1-3)Gal(b1-4)GlcNAc(b1-3)Gal(b1-4)GlcNAc(b1-2)Man(a1-3)[GlcNAc(b1-3)Gal(b1-4)GlcNAc(b1-3)Gal(b1-4)GlcNAc(b1-3)Gal(b1-4)GlcNAc(b1-2)Man(a1-6)]Man(b1-4)GlcNAc(b1-4)[Fuc(a1-6)]GlcNAc
# Outline: as §1
# [35] = target: GlcNAc(b1-3)Gal(b1-4)GlcNAc(b1-3)Gal(b1-4)GlcNAc(b1-3)Gal(b1-4)GlcNAc(b1-2)[GlcNAc(b1-3)Gal(b1-4)GlcNAc(b1-3)Gal(b1-4)GlcNAc(b1-3)Gal(b1-4)GlcNAc(b1-6)]Man(a1-6)[GlcNAc(b1-3)Gal(b1-4)GlcNAc(b1-3)Gal(b1-4)GlcNAc(b1-3)Gal(b1-4)GlcNAc(b1-2)Man(a1-3)]Man(b1-4)GlcNAc(b1-4)[Fuc(a1-6)]GlcNAc
# Outline: as §1
# [36] = target: GlcNAc(b1-3)Gal(b1-4)GlcNAc(b1-3)Gal(b1-4)GlcNAc(b1-3)Gal(b1-4)GlcNAc(b1-3)Gal(b1-4)GlcNAc(b1-2)Man(a1-3)[GlcNAc(b1-3)Gal(b1-4)GlcNAc(b1-3)Gal(b1-4)GlcNAc(b1-3)Gal(b1-4)GlcNAc(b1-3)Gal(b1-4)GlcNAc(b1-2)Man(a1-6)]Man(b1-4)GlcNAc(b1-4)GlcNAc
# Outline: as §1
# [37] = target: GlcNAc(b1-3)Gal(b1-4)GlcNAc(b1-3)Gal(b1-4)GlcNAc(b1-3)Gal(b1-4)GlcNAc(b1-3)Gal(b1-4)GlcNAc(b1-2)Man(a1-3)[GlcNAc(b1-3)Gal(b1-4)GlcNAc(b1-3)Gal(b1-4)GlcNAc(b1-3)Gal(b1-4)GlcNAc(b1-3)Gal(b1-4)GlcNAc(b1-2)Man(a1-6)]Man(b1-4)GlcNAc(b1-4)[Fuc(a1-6)]GlcNAc
# Outline: as §1
binder,measurement,setting,value
"Clec2 (Mus musculus), Q9JL99 (protein) MQDEDGYITLNIKPRKQALSSAEPASSWWRVMALVLLISSMGLVVGLVALGIMSVTQQKYLLAEKENLSATLQQLAKKFCQELIRQSEIKTKSTFEHKCSPCATKWRYHGDSCYGFFRRNLTWEESKQYCTEQNATLVKTASQSTLDYIAERITSVRWIGLSRQNSKKDWMWEDSSVLRKNGINLSGNTEENMNCAYLHNGKIHPASCKERHYLICERNAGMTRVDQLL",glycan array binding signal (z-score),Glc(b1-4)Glc,0.651
same,glycan array binding signal (z-score),Glc(b1-6)Glc,0.19
same,glycan array binding signal (z-score),GlcA(b1-3)Gal,0.411
same,glycan array binding signal (z-score),GlcA(b1-3)GlcNAc,0.528
same,glycan array binding signal (z-score),GlcA(b1-6)Gal,0.294
same,glycan array binding signal (z-score),[1],1.09
same,glycan array binding signal (z-score),[2],-0.154
same,glycan array binding signal (z-score),[3],-0.539
same,glycan array binding signal (z-score),[4],-0.381
same,glycan array binding signal (z-score),[5],-0.598
same,glycan array binding signal (z-score),[6],-0.797
same,glycan array binding signal (z-score),[7],-0.676
same,glycan array binding signal (z-score),[8],-0.749
same,glycan array binding signal (z-score),[9],-0.7
same,glycan array binding signal (z-score),[10],0.251
same,glycan array binding signal (z-score),[11],-0.817
same,glycan array binding signal (z-score),[12],-0.226
same,glycan array binding signal (z-score),[13],0.119
same,glycan array binding signal (z-score),[14],-0.686
same,glycan array binding signal (z-score),[15],-0.678
same,glycan array binding signal (z-score),[16],-0.672
same,glycan array binding signal (z-score),[17],-0.656
same,glycan array binding signal (z-score),[18],-0.453
same,glycan array binding signal (z-score),[19],-0.623
same,glycan array binding signal (z-score),[20],-0.754
same,glycan array binding signal (z-score),[21],-0.182
same,glycan array binding signal (z-score),[22],-0.792
same,glycan array binding signal (z-score),[23],-0.184
same,glycan array binding signal (z-score),GlcNAc(b1-3)Fuc,-0.65
same,glycan array binding signal (z-score),GlcNAc(b1-3)Gal,-0.22
same,glycan array binding signal (z-score),[24],-0.055
same,glycan array binding signal (z-score),GlcNAc(b1-3)Gal(b1-4)Glc,-0.466
same,glycan array binding signal (z-score),[25],-0.827
same,glycan array binding signal (z-score),[26],-0.5
same,glycan array binding signal (z-score),[27],-0.399
same,glycan array binding signal (z-score),[28],0.552
same,glycan array binding signal (z-score),[29],-0.629
same,glycan array binding signal (z-score),[30],0.288
same,glycan array binding signal (z-score),[31],-0.438
same,glycan array binding signal (z-score),[32],0.177
same,glycan array binding signal (z-score),[33],-0.124
same,glycan array binding signal (z-score),[34],-0.184
same,glycan array binding signal (z-score),[35],-0.477
same,glycan array binding signal (z-score),[36],-0.158
same,glycan array binding signal (z-score),[37],-0.617
